Out of some 310,000 compounds screened, about 14,000 (4.5%) showed an effect of 50% or more. The effect is printed as a negative number. This is one part of the list.
target: human ether-à-go-go-related gene (hERG) potassium channel (human, UniProt Q12809); experiment: primary screen, population patch clamp on CHO cells stably expressing hERG
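Also: peak tail current of the secondary pulse compared with the same well before compound.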

human ether-à-go-go-related gene (hERG) potassium channel, sequence (Q12809 whole entry, looked up): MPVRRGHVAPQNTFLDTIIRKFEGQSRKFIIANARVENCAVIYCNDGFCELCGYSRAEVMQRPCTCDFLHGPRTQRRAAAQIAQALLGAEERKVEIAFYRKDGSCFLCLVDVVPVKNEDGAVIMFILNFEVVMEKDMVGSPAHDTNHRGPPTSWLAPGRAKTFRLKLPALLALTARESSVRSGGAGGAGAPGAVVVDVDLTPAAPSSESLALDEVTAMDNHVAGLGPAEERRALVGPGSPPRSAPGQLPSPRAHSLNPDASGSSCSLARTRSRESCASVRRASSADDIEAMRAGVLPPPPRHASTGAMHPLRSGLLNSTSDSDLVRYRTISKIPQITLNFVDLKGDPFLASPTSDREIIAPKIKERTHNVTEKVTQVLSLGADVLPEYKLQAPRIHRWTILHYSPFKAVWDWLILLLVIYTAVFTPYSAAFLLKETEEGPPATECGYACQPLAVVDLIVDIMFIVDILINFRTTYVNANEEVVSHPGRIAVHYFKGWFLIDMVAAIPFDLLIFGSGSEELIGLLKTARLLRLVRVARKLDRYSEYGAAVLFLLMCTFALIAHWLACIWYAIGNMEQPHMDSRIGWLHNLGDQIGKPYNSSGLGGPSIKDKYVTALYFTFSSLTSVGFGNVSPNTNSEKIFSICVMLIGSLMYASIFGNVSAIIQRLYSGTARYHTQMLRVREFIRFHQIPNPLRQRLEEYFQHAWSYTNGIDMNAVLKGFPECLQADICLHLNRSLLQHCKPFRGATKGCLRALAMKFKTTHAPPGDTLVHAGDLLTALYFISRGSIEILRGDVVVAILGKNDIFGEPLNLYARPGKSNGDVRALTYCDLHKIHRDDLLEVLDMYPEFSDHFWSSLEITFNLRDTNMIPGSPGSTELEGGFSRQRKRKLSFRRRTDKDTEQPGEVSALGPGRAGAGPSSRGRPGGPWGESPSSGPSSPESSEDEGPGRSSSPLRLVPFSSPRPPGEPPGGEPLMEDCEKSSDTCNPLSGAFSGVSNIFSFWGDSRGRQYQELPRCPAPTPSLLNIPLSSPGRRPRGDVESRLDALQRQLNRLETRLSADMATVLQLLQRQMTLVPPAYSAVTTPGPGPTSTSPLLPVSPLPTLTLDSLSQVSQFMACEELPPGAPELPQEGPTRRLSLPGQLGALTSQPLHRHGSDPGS

Structure (SMILES)	hERG current change (%, negative = inhibition) at 10uM
COCCCNC(=O)/C(C#N)=C/c1c(N2CCN(c3ccccc3)CC2)nc2ccccn2c1=O	-20.3%
CCCc1cc(CNC(=O)C2CCC(=O)N(Cc3ccccc3OC)C2)on1 (stereo not shown)	10.1%
COC(=O)c1c(C)nc2c(c(SC)nn2-c2ccccc2)c1N	6.32%
N#C/C(=C\c1ccc(O)c(Br)c1)C(=O)NCc1ccccc1	-0.941%
CC(C)(C)OC(=O)Nc1ccc([C@H](NC(=O)OC(C)(C)C)C(=O)OC(C)(C)C)cc1	6.47%
CC1CCCCC1NC(=O)c1cccc(N2C(=O)C3C4C=CC(C4)C3C2=O)c1 (stereo not shown)	8.28%
Cc1cccnc1NC(=O)C1c2ccccc2Oc2ccccc21	-5.44%
Cc1cc(S(=O)(=O)N2c3ccc(F)cc3CCC2C)ccc1-n1cnnn1 (stereo not shown)	6.53%
O=C(O)c1ccccc1SCCS(=O)(=O)c1ccc(Cl)cc1Cl	7.72%
CC(C)N1CCC(N2CCN(Cc3nc4ccccc4s3)CC2CCO)CC1 (stereo not shown)	-33.4%
Fc1ccc(NC(=S)Nc2ccc(F)c(Cl)c2)cc1Cl	5.59%
O=C(c1ccc(CS(=O)(=O)c2ccc(Br)cc2)o1)N1CCN(c2ccc(F)cc2)CC1	6.91%
Cc1ccc(COc2ccc(/C=N/O)cc2)cc1	16.6%
CCOC(=O)c1c(C)[nH]c(NC(=O)Nc2c(C)n(C)n(-c3ccccc3)c2=O)c1C	14.8%
OCCNC(=S)c1ccccc1	18.3%
COC(=O)CCSc1cc([N+](=O)[O-])cc2c1c(C1OCCS1)nn2-c1ccccc1 (stereo not shown)	3.61%
CCOC(=O)C1C(=O)C=C(/C=C/c2ccccc2)CC1c1ccc(Cl)cc1 (stereo not shown)	-0.716%
CC(C)OC(=O)c1ccc(COc2ccc3ccc(=O)oc3c2)o1	-35.7%
O=C(CSc1ccccn1)Nc1cccc2ccccc12	8.26%
Cc1cccc(C(=O)NC(C(=O)Nc2cccc(S(=O)(=O)N3CCCC3)c2)C(C)C)c1 (stereo not shown)	10.1%
Cc1ccc2nc(-c3ccc4c(c3)OCCO4)cn2c1	-16%
N#Cc1ccccc1CSc1nc(N)cc(N)n1	10.5%

Structure (SMILES)	hERG current change (%, negative = inhibition) at 10uM
CCNS(=O)(=O)c1c(C)cc(N2CCCC2=O)cc1C	6.32%
Cc1nc([N+](=O)[O-])c(C(=O)OCc2ccc(C#N)cc2)n1C	-33.8%
O=C(N/N=C/c1ccc2c(c1)OCO2)c1cc(-c2ccccc2Cl)nc2ccccc12	19.9%
Cc1nc2cc(-c3ccc(Cl)cc3)nn2c(C)c1CCC(=O)NC(C)c1ccc2c(c1)OCCO2 (stereo not shown)	-23.8%
COc1ccc(/C=C2/SC(=S)N(CCCC(=O)N3CCN(C)CC3)C2=O)cc1	2.98%
Cc1ccc(C)c(N2CCN(S(=O)(=O)c3ccc4c(c3)CCN4C(=O)CCC(=O)O)CC2)c1	13.9%
CCN(C(=O)Cn1cnc2c(nc3n2CCCCC3)c1=O)c1cccc(Cl)c1	-25.4%
O=S(=O)(N/N=C/c1ccc2c(c1)OCCO2)c1ccccc1	-8.67%
Cc1cc(C)cc(OCC(=O)Nc2cccc(-c3nnc(-c4ccco4)o3)c2)c1	-12.8%
CCS(=O)(=O)Nc1ccc(C2=NN(S(=O)(=O)c3ccc(F)cc3)C(c3ccco3)C2)cc1 (stereo not shown)	-38.8%
CCOc1ccc(NC(=O)C2CC(=O)N(CCc3ccc(OC)c(OC)c3)C2)cc1OCC (stereo not shown)	11.7%
O=C(O)/C=C/C(=O)Nc1ccccc1-c1ccccc1NC(=O)/C=C/C(=O)O	17.9%
O=C(CCc1ccccc1)Nc1ccc2ccccc2n1	14%
Cc1ccc(OCC(=O)N(C)CC(=O)Nc2cccc(F)c2)cc1	5.19%
Cc1ccc(C(=O)Nc2ccc(C(=O)O)cc2NC(=O)c2ccc(C)cc2)cc1	13.3%
Cc1ccc(Cn2nnc(C(=O)Nc3cc(C)ccc3C)c2N)cc1	1.95%
CCC(C)Nc1nc2c(c(=O)[nH]c(=O)n2C)n1CCCc1ccccc1 (stereo not shown)	-2.93%
C=CCn1c(O)c(N=NC(=O)OCC)c2ccccc21	-13.6%
Cc1ccccc1C(=O)Nc1ccc2c(c1)nc(CCNC(=O)c1ccco1)n2C	-18%
Cc1cc(CN(C)C(=O)c2ccc(OC3CCN(S(=O)(=O)N(C)C)CC3)cc2)n[nH]1	19.3%
O=C(NNc1nc2ccccc2s1)Nc1ccc(Cl)c(Cl)c1	32.6%
Cc1ccc(C(=O)NC(C)C2CC3CCC2C3)c(C)c1 (stereo not shown)	-13.2%

Structure (SMILES)	hERG current change (%, negative = inhibition) at 10uM
O=C(COc1ccccc1)NC(NC(=S)Nc1ccccc1C(=O)O)C(Cl)(Cl)Cl (stereo not shown)	18.7%
CCOc1ccc(NC(=O)CCc2nnc3ccc(N4CCN(C)CC4)nn23)cc1	17.3%
COC(=O)COc1ccc(S(=O)(=O)N2CCOCC2)cc1C	-1.37%
CCn1c2ccccc2c2cc(/C=N/NC(=O)c3ccc(O)cc3)ccc21	-5.44%
Cc1ccccc1C(=O)NC(CC(C)C)C(=O)NN1C(=O)c2ccccc2C1=O (stereo not shown)	25.9%
CC1(c2ccc([N+](=O)[O-])cc2)NC(=O)N(CC(=O)c2ccc3c(c2)OCO3)C1=O (stereo not shown)	-1.19%
COc1ccc(N(C(=O)c2snc(C(N)=O)c2N)C(C(=O)NC2CCCCC2)c2ccc(F)cc2)c(OC)c1 (stereo not shown)	6.24%
Cn1c(=O)oc2cc(S(=O)(=O)NCc3ccc(F)cc3)ccc21	-35.2%
CCNC(=O)CC1C(=O)N(c2ccc(OC)cc2)C(=O)N1CCOC (stereo not shown)	16.8%
CC(=NCc1cccnc1)c1c(O)n(-c2ccc(C)cc2)c(=O)[nH]c1=O	-8.92%
O=C(COC(=O)[C@H](Cc1ccccc1)NC(=O)c1cccs1)Nc1ccccc1C(F)(F)F	4.47%
O=C(NN=C1CCN(Cc2ccccc2)CC1)C(O)c1ccccc1 (stereo not shown)	7.39%
Cc1ccc(CNC(=O)CN2CCCC(C)C2)cc1 (stereo not shown)	-29.7%
Cn1c(SCc2nc(-c3ccccc3)no2)nnc1-c1cccs1	-2.11%
CCCCOP(=O)(OCCCC)C(O)c1ccc(F)cc1 (stereo not shown)	-5.14%
Cc1ccc2occ(C(c3nnnn3C3CCCC3)N3CCN(C(=O)c4ccco4)CC3)c(=O)c2c1 (stereo not shown)	-45.7%
COc1ccc(CCN2C(=O)C3C4CC(C5C(C(=O)N/N=C\c6ccc(Cl)cc6)=NOC45)C3C2=O)cc1OC (stereo not shown)	-67.7%
O=C(NCC1CCN(c2ccc(S(=O)(=O)N3CCOCC3)cc2)CC1)c1cccc(Cl)c1	-12.4%
COc1ccc(-c2nc(CS(=O)CC(=O)NC3CCCc4ccccc43)c(C)o2)cc1OC (stereo not shown)	-15.2%
CC(C)OC(=O)c1cn(-c2ccccc2)nc1-c1ccco1	3.82%
Cc1cc2oc(C(=O)N(Cc3ccccc3)C3CCS(=O)(=O)C3)c(C)c2cc1C (stereo not shown)	11.4%
COCC1CCCN(Cc2nc(Cc3ccccc3)no2)C1 (stereo not shown)	11.6%

Structure (SMILES)	hERG current change (%, negative = inhibition) at 10uM
CC(C)(C)C(=O)OCCn1c(=O)c2cc3c(=O)n(CCOC(=O)C(C)(C)C)c(=O)c3cc2c1=O	25.5%
Cc1[nH]c(C)c(S(=O)(=O)N(Cc2ccccc2)C(C)C)c1C(=O)N1CCCC1	6.25%
O=C(CCNc1ccc(Br)cc1)c1cccc([N+](=O)[O-])c1	-4.24%
Cc1cccc(-n2c(Cc3cc(=O)[nH]c(=O)[nH]3)nnc2SCC(=O)N2CCc3ccccc32)c1	0.321%
Cn1ccnc1Sc1nc2ccccc2nc1NS(=O)(=O)c1ccccc1	9.78%
c1ccc(C(Cc2nc(-c3ccncc3)no2)c2ccccc2)cc1	17.1%
Cc1[nH]c(=O)c(C#N)c(C)c1CCC(=O)NCc1cccc(C(F)(F)F)c1	17.6%
O=C(CSc1nccc(=O)[nH]1)c1ccccc1Br	-3.44%
Cc1cc(-c2ccc(C)c(S(=O)(=O)NCC3CCN(Cc4ccc(F)cc4)CC3)c2)on1	-66.2%
CCOc1ccc(S(=O)(=O)NNC(=S)Nc2ccc(Br)cc2)cc1	5.35%
Cc1noc(C)c1C(=O)NCc1ccco1	0.0994%
O=C(c1cccc(Oc2c(Cl)cccc2[N+](=O)[O-])c1)N1CCCCC1	7.85%
CSCCC(NC(=O)c1ccccc1)C(=O)N1CCCCCCC1 (stereo not shown)	-12.2%
O=C(C(Cc1ccccc1)n1cccc1)N1CCc2ccccc21 (stereo not shown)	2.28%
CC1CCCCC12NC(=O)N(CC(=O)c1ccc3c(c1)OCO3)C2=O (stereo not shown)	-17.9%
CCOc1cc(C2NC(=O)NC2=O)ccc1O (stereo not shown)	17.4%
CCC(=O)OCC(=O)N=c1sccn1Cc1ccc(C)cc1	-13%
CN1C(=S)N(c2ccccc2)C(=O)/C1=C/c1ccco1	9.73%
O=C(C(c1ccccc1)c1ccccc1)N(Cc1ccco1)C1CCS(=O)(=O)C1 (stereo not shown)	-6.5%
